Measurements published in publication PMC4336329 (PLoS ONE, 2015).
Among all 310,000 compounds or so, about 2,200 (0.71%) showed an effect of 50% or more. The effect is printed as a negative number. Some of the results follow.

Each compound was assayed against human ether-à-go-go-related gene (hERG) potassium channel (human, UniProt Q12809) (assay: primary screen, population patch clamp on CHO cells stably expressing hERG).
Sequence of human ether-à-go-go-related gene (hERG) potassium channel (Q12809 whole entry, looked up): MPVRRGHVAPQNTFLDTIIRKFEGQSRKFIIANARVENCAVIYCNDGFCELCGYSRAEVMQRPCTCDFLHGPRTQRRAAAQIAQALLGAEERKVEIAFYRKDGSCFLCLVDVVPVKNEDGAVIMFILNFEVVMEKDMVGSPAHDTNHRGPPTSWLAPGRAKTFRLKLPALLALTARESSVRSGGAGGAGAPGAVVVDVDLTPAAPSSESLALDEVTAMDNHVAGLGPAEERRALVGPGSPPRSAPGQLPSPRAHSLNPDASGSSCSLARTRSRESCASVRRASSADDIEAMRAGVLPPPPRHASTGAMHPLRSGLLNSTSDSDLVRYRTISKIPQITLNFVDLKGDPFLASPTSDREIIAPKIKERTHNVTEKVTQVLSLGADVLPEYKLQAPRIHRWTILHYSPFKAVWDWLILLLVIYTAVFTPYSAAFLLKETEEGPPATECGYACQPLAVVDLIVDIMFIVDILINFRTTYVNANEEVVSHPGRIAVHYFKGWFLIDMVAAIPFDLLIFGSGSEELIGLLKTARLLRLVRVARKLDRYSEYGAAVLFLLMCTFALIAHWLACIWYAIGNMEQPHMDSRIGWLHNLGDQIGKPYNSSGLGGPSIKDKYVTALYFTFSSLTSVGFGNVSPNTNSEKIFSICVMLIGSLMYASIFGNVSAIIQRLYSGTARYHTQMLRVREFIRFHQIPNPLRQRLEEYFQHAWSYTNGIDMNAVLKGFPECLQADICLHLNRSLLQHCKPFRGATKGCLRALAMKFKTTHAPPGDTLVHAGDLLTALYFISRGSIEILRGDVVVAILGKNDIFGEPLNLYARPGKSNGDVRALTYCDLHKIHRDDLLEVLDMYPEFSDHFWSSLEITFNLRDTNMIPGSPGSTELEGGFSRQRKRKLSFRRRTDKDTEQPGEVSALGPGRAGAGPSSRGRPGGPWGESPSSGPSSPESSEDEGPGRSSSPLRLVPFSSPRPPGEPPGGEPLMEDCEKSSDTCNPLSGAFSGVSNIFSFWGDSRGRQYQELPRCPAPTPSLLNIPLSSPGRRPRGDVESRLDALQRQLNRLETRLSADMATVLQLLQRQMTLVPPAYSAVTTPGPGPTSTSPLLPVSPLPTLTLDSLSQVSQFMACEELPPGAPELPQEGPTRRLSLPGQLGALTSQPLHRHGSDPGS

In order of rising “hERG current change (%, negative = inhibition) at 1uM” value:
1. Cn1c(SCC(=O)N2CCc3ccccc3C2)nnc1-c1cccs1  -24.1%
2. O=C(CN1C(=O)COc2ccccc21)NCCN1CCC(Cc2ccccc2)CC1  -19%
3. COc1ccc(NC(=O)CN2CCN(C(=S)NC3CCCC3)CC2)cc1  -16.2%
4. O=C(COc1ccccc1)N1CCN(S(=O)(=O)c2cccs2)CC1  -7.49%
5. COc1ccc(NC(=O)COc2coc(CN3CCCc4ccccc43)cc2=O)cc1  -6.97%
6. CCN(Cc1ccncc1)C(=O)c1cc(COc2ccc(C)c(C)c2)on1  -5.56%
7. COc1ccc(C(=O)NCc2nnc(SCC(=O)c3ccccc3)n2C)cc1OC  -5.16%
8. COc1ccc(S(=O)(=O)N2CCC3(CC2)OCCN3S(=O)(=O)c2ccc(OC)cc2)cc1  -2.15%
9. CC1NC(=O)NC1CCCCCC(=O)Nc1ccc(F)cc1 (centres unmarked)  -0.454%
10. CC1CCCCN1c1nnc(NC(=O)c2cc(-c3ccc(Br)cc3)on2)s1 (centres unmarked)  -0.29%
11. CCOC(=O)c1c(N)sc2c1CCC(C)C2 (centres unmarked)  -0.273%
12. CC1CCCCN1C(=O)Cn1cc(C=O)c2ccccc21 (centres unmarked)  0.694%
13. O=C(Nc1cccnc1)c1c(F)c(F)c(F)c(F)c1F  1.27%
14. CCN(Cc1ccccc1)S(=O)(=O)c1c(C)[nH]c(C)c1C(=O)N1CCCCC1  1.43%
15. CCN(CC)C(=S)Oc1c(Cl)cccc1Cl  3.08%
16. O=C(Nc1c2c(nn1-c1ccc([N+](=O)[O-])cc1)CS(=O)(=O)C2)c1cccs1  3.14%
17. O=C(CSc1nnc(-c2ccc3c(c2)OCCO3)o1)N1CCCC1  4.79%
18. CCOC(=O)N1CCN(C2=NC3(CCCCC3)C(C#N)C(=O)N2)CC1 (centres unmarked)  5.2%
19. Cc1cc2ccccc2c(=O)n1CC(=O)NCC(=O)N1CCCC1  6.44%
20. COc1ccc(-n2c(O)c(C(C)=NC3CC3)c(=O)[nH]c2=O)cc1  6.49%
21. COCCNC(=O)c1csc(Nc2cccc3ccccc23)n1  7.31%
22. COc1ccccc1C(=O)NCCC(=O)NCC1COc2ccccc2O1 (centres unmarked)  8.08%
23. CCOCCCNC(=O)C(c1ccc(Cl)cc1)N(Cc1cccs1)C(=O)c1ccccn1 (centres unmarked)  8.13%
24. CCSc1nc2ccccc2n1CC(=O)N1CCCCC1  9.11%
25. CC1CN(C(=O)Nc2ccc(Br)cc2Cl)CC(C)O1 (centres unmarked)  9.73%
26. O=C(c1ccccc1C(=O)N(c1ccccc1)c1ccccc1)N1CCCCC1  9.86%
27. O=C(OC(C(=O)Nc1ccc(Cl)c(C(F)(F)F)c1)c1ccccc1)C1=COCCO1 (centres unmarked)  10%
28. CCN1CCN(CCCNC(=O)c2ccccc2NC(=O)C2=C(C)OCCS2)CC1  10.1%
29. O=C(/C=C/c1c(F)cccc1Cl)c1ccc(O)cc1  10.1%
30. COCCCNC(=O)CN(c1cc(Cl)ccc1OC)S(=O)(=O)c1ccc(C)c([N+](=O)[O-])c1  10.6%
31. NC(=O)C1CCN(CC(=O)Nc2ccccc2C(=O)NC2CC2)CC1  10.7%
32. Clc1ccc(OCc2nnc(-c3ccccc3Br)o2)c(Cl)c1  11%
33. O=C(O)c1cc(-c2ccccc2)nc(-c2ccccc2)c1  11.1%
34. Cc1ccc(C2(C)NC(=O)N(CC(=O)NNC(=O)c3ccccc3)C2=O)cc1 (centres unmarked)  11.7%
35. O=C(CSc1n[nH]c(=O)[nH]c1=O)c1ccccc1  11.8%
36. CCCC1=[N+](CC(C)=O)CCn2c(C)ccc21.[Br-]  11.9%
37. COC(=O)C1=C(C)NC(C)=C(C(=O)OC)C1C(=O)OCC(=O)c1ccc(F)cc1  12.4%
38. O=C(CSc1nnnn1-c1ccccc1)NCC1(N2CCOCC2)CCCCC1  12.9%
39. COc1ccc(C2c3[nH]c4ccccc4c3CCN2C(=O)c2cn3ccccc3n2)c(F)c1 (centres unmarked)  13%
40. CCOC(=O)N1CCN(C(=O)Cn2nc(C)n3nc(-c4ccc(OC)cc4)cc3c2=O)CC1  13.8%
41. COc1ccccc1CNC(=O)COC(=O)c1ccccc1-c1ccccc1  14.1%
42. CCOc1ccc(S(=O)(=O)NCc2ccc3c(c2)OCO3)cc1NC(C)=O  14.7%
43. COc1ccc([N+](=O)[O-])cc1NC(=O)Nc1ccccc1  16.5%
44. Cc1ccc(-c2nc(-c3ccncc3)no2)c(Cl)c1  24.2%
